# Source: paper PMC12136788
# Some of the results follow.
# T1: UNK ZnF1-6 (called full-length) (human, UniProt Q9C0B0 30-357)
# T1 sequence: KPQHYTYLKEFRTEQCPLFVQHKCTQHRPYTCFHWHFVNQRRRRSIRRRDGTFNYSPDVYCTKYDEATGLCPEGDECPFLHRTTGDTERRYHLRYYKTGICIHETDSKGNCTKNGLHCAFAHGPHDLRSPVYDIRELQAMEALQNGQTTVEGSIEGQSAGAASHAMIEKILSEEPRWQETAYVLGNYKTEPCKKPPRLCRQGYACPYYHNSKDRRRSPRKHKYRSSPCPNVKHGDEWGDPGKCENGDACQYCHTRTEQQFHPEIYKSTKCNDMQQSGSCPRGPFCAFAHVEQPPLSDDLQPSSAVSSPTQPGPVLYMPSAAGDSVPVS
# B1: chr12:101746137:101746238:-|3pUTR|ENSG00000111670|msi1|total|mutant (ssRNA)
# RNA: GGGAGUUCUACAGUCCGACGAUCGGUCCGUAAAUUAUUGCAGGCCACCUGUGUCUUUGUCAUACAUUCUUCUUGCUGUUGUUCCGUUUGUUUUUUUUCAAACAACCCUCUAAAAAUGUAAAAACCAUGUUCCGCUUGCAGCUGCAACAGAGGAUUGAGCAUCA
# B2: chr9:88475159:88475277:+|CDS|ENSG00000106723|unk|FALSE|bound_elsewhere (ssRNA)
# RNA: GGGAGUUCUACAGUCCGACGAUCACAAGUGGAAUAUGCCAAAGAAGAUGGCUCGAAAAGGACUGGCAUGGUCAUUCAUCAAGUAGAAGCCAAGCCCUCCGUCUAUUUCAUCAAGUUUGAUGAUGAUUUCCAUAUUUAUGUCUACAACAGAGGAUUGAGCAUCA
# B3: chr4:175632990:175633131:-|3pUTR|ENSG00000150625|msi1|FALSE|unique (ssRNA)
# RNA: GGGAGUUCUACAGUCCGACGAUCGUUGACACUUUUGGCUUUUAUUUCUGGUAUUAGAGUUUGUAUUUUCACAGAGUGCUUUGUAGCAGGCAUUACAAUUAAUCUGUUUUGUACAUAAAUGUGCCAACAGCUUGAUGGUGGCGUCAACAGAGGAUUGAGCAUCA
# B4: chr10:5393100:5393516:-|three_prime_utr|ENSG00000178462|control|control|control (ssRNA)
# RNA: GGGAGUUCUACAGUCCGACGAUCUGGGUGCAAAUGAAUGUCAAGUUAAAAUGGCAUGUUUUCUUUUCAAGCCGUUAUAUGCCUAGUGGGUAGUUCCCCUGAUGAGCAGAAAAAUGAACUCAAAUCAGGCAAGACUCUAGGUUCCAACAGAGGAUUGAGCAUCA
# B5: chr7:135928980:135929074:-|3pUTR|ENSG00000105887|msi1_unk|total|mutant (ssRNA)
# RNA: GGGAGUUCUACAGUCCGACGAUCUAAAAACCGAAUCACCGCCAUAAGCCUGUCCGUAUCAUAUGAAGAGAGAACAGUUAUCUCCGUACCUAUGGAUUUUCUUUAUUUGCUGUUUGAAUGGAUUGACCUUGGUUAUGUGUUGAGCAACAGAGGAUUGAGCAUCA
# B6: ENSG00000197746:stop:overlap|stop_codon|ENSG00000197746|stop_codon|NA|stop_codon (ssRNA)
# RNA: GGGAGUUCUACAGUCCGACGAUCACACAGAGACAGCAGCCCAGUGCAAUGCUGUCGAGCAUUGCAAACGCCAUGUGUGGAACUAGGAGGAGGAAUAUUCCAUCUUGGCAGAAACCACAGCAUUGGUUUUUUUCUACUUGUGUGCAACAGAGGAUUGAGCAUCA
# B7: chr10:121967677:121967791:-|CDS|ENSG00000107672|unk|FALSE|bound_elsewhere (ssRNA)
# RNA: GGGAGUUCUACAGUCCGACGAUCAAAUCCGCUAGAAGCUGAAGAACUCAUCCGUGAUGAAGAUAGUCCUGAUUUUGAAUUCAUAGUCUAUGACUCCUGGAAGAUAACAGGCAGAACAGCAGAAAACACCUUUAAUAAAACCCACAACAGAGGAUUGAGCAUCA
# B8: chr9:104598459:104599413:-|CDS|ENSG00000277556|control|control|control (ssRNA)
# RNA: GGGAGUUCUACAGUCCGACGAUCCUUAUAUUCAUAUUCUACAGGGUGAUGACUCCCAUGAUGAAUCCUUUAAUCUACAGUCUUAGAAACAAGGAUGUGAAGGAGGCAGUAAAACACCUACUGAGAAGAAAAAAUUUUAACAAGCAACAGAGGAUUGAGCAUCA
# B9: chr16:46956602:46956663:-|3pUTR|ENSG00000069345|msi1_unk|total|mutant (ssRNA)
# RNA: GGGAGUUCUACAGUCCGACGAUCGUUUGUACAAUUUGUCCUGAAGCUUUGUGUUUGGCUGCACCUGCAUAAGCUGCUACAAACCGAAUAAAGAAUUUCACCGCCUGUAUCUAUCAUUCCGAUGCAUGGAAAAAAAUGGGCUUUCAACAGAGGAUUGAGCAUCA
# B10: chr12:100626600:100626701:+|3pUTR|ENSG00000139354|unk|total|mutant (ssRNA)
# RNA: GGGAGUUCUACAGUCCGACGAUCAAUUUUAUCAUCAAGUAUUCCCUUAUAAAACCAAGUAACACUUCUUUAUCAGUAACUUUCCGAACUUAAAAGAAAGCAAAAAGUAAAUGGAAUUGCCGGCAAUUUAUGAAUCCCCGCCGACAACAGAGGAUUGAGCAUCA
# B11: ENSG00000152377:stop:overlap|stop_codon|ENSG00000152377|stop_codon|NA|stop_codon (ssRNA)
# RNA: GGGAGUUCUACAGUCCGACGAUCUGACAGAGGAUGAUGAGGAUGAGGAUGAUGACAAAGAGGAUGAGGUCGGGUACAUAUGGUAGUGCCCACAAGAAAGAGGACACAAGUUUUGCACAAAAUUGCAAGUCACUUCCUAUUCCUCAACAGAGGAUUGAGCAUCA
# B12: chr4:177362735:177362840:+|3pUTR|ENSG00000109674|unk|total|mutant (ssRNA)
# RNA: GGGAGUUCUACAGUCCGACGAUCAAAGUGUUUUCCGUAUGCUUUCCGUCUCUUGUAACUGGGGAGAAGCAGUGUUUUUUUUUCCGGAAAGGAUUAUGCGACACAAUAAAAUAAGAUAUUCUGUCUGCCGUGAAUACAUUUCUCCAACAGAGGAUUGAGCAUCA
# B13: chr8:116854276:116854437:-|CDS|ENSG00000164754|unk|FALSE|bound_elsewhere (ssRNA)
# RNA: GGGAGUUCUACAGUCCGACGAUCAGGAAGCUAAUUGUUGACAGUGUCAAAGAGUUGGAUAGCAAGACAAUUAGAGCCCAACUUAGUGAUUAUUCAGAUAUUGUUACUACUUUGGAUCUGGCACCGCCCACCAAGAAAUUGAUGCAACAGAGGAUUGAGCAUCA
# B14: chr6:52500910:52501011:-|3pUTR|ENSG00000065308|msi1|FALSE|unique (ssRNA)
# RNA: GGGAGUUCUACAGUCCGACGAUCUAAUAACUGCAAAUCGCAUGUUCAGCCAGCAGCCUCCUAAGCCCACCUUCCUCCCCCAUUAGAGAACACCCAUCCUAGGUGCUCUCCAGGCUGUGUCAUUGGCAGGGCUUCACAUGCAGGCAACAGAGGAUUGAGCAUCA
# B15: chr21:43758806:43758907:+|3pUTR|ENSG00000160209|msi1|total|mutant (ssRNA)
# RNA: GGGAGUUCUACAGUCCGACGAUCACUUUCUUAAUCCAGUUUUUCAAACUUCUCCCUGCCGACCGUAAGGAUGAAUUCCACAACCGGAUCCUUUUUAAAAUCGAUUUUAAAUUGUUGCCCCGUCCUGCCAAGGUUAUUAUGUGCCAACAGAGGAUUGAGCAUCA
# B16: chr1:54043363:54043464:-|CDS|ENSG00000116209|msi1|FALSE|unique (ssRNA)
# RNA: GGGAGUUCUACAGUCCGACGAUCCGCACAGAGCUUCAUAACCUCUUCAUGGACUUUUUAUCUUCAAGCCGAUGACGGAAAAAUAGUUAUAUUCCAGGUGACAACUGAGCUUCAUGGAUUCAUCUAAAUACUAACAACAGUAAACAACAGAGGAUUGAGCAUCA
# B17: ENSG00000198589:be:win_601|CDS|ENSG00000198589|bound_else_gene|NA|bound_elsewhere_windowed (ssRNA)
# RNA: GGGAGUUCUACAGUCCGACGAUCUAUGGUCCUGAUGCCUUUUUUAACUUUCCAGGAAAGAGUGCUGCAGCUAUUGCAUUACCUCCUAUAGCCAAAUGGCCAUACCAGAAUGGUUUUACAUUUCAUACAUGGCUUAGAAUGGAUCAACAGAGGAUUGAGCAUCA
# B18: chr12:24812577:24812678:-|3pUTR|ENSG00000060982|msi1|total|mutant (ssRNA)
# RNA: GGGAGUUCUACAGUCCGACGAUCAUCCAAAGGAGCUUUUUCCUUAUUCUGUCAAGCAUUGAGAUCUUCUUCAGCUUUCAAUGCCGUUGCUAAAUACAAAUAAUGCUACCCGGCCGUGACUAAAUACCGCAAACACUUCAUCAGCAACAGAGGAUUGAGCAUCA
# B19: chr3:154315110:154315224:-|CDS|ENSG00000174953|unk|FALSE|unique (ssRNA)
# RNA: GGGAGUUCUACAGUCCGACGAUCUCAGAGAACAAACUUGACAUCCAGGAAAAGAAGUUGAUAAAUCAAGAAAAAAAAAUGUUUAGAAUCAGGAACAGAUCAUAUAUUGACCGAGAUUCUGAGUAUCUCUUGCAAGAAAAUGAACAACAGAGGAUUGAGCAUCA
# B20: chr5:139390591:139392033:-|three_prime_utr|ENSG00000228672|control|control|control (ssRNA)
# RNA: GGGAGUUCUACAGUCCGACGAUCAGGGCGUGGUGUGGUGUGGUGUGUGGGUGUGUGUAUAUGUGUAUAUGCGGGCAAGCAAAUAGGGAAAGUGAGGCAUCCCUGGGCUUGUCCCCAGGAGCCGAUCAGAGGAGGUGCUGUGGCCAACAGAGGAUUGAGCAUCA
# B21: chr22:39522180:39522281:+|CDS|ENSG00000128272|msi1|FALSE|bound_elsewhere (ssRNA)
# RNA: GGGAGUUCUACAGUCCGACGAUCGCUUACGUUGCCAUGAUCCCUCAGUGCAUAAAGGAGGAAGACACCCCUUCAGAUAAUGAUAGUGGCAUCUGUAUGAGCCCAGAGUCCUAUCUGGGGUCUCCUCAGCACAGCCCCUCUACCCAACAGAGGAUUGAGCAUCA
# B22: chr4:185586528:185586629:-|3pUTR|ENSG00000154556|msi1|total|mutant (ssRNA)
# RNA: GGGAGUUCUACAGUCCGACGAUCAUCCAUAUGAUAUGUUGUACAUUUUAUGGAAAUGUAACCGAAUCUCACACAUUAUUUUACCGAAACCGAGUACAGAAGCAUCACAAGUAUUAAAGUUGGUUUCCGCAAGGAUCCGGAUUACAACAGAGGAUUGAGCAUCA
# Target: T1, UNK ZnF1-6 (called full-length)
# Experiment: nsRBNS (natural sequence RNA bind-n-seq); RBNS binding buffer (assumed for nsRBNS): 25 mM Tris pH 7.5, 150 mM KCl, 3 mM MgCl2, 0.01% Triton X-100, 500 ug/ml BSA, 20 U/ml SUPERase-In, 4 C; UNK is unkempt and MSI1 is Musashi-1; names of the RNAs are library labels; protein concentration not given here; high values mean tight binding
row,Binder,binding signal [enrichment R]
1,B1,0.424
2,B2,0.549
3,B3,0.926
4,B4,0.406
5,B5,0.247
6,B6,0.944
7,B7,0.695
8,B8,0.402
9,B9,0.246
10,B10,0.652
11,B11,0.673
12,B12,0.427
13,B13,0.624
14,B14,0.849
15,B15,0.447
16,B16,0.525
17,B17,0.375
18,B18,0.21
19,B19,0.511
20,B20,1.13
21,B21,0.588
22,B22,0.52
